Structures are written as SMILES. The whole screen tested about 310,000 compounds, of which about 2,200 (0.71%) showed an effect of 50% or more. The effect is printed as a negative number. The list shows a part of the results.

Sequence of human ether-à-go-go-related gene (hERG) potassium channel (Q12809 whole entry, looked up): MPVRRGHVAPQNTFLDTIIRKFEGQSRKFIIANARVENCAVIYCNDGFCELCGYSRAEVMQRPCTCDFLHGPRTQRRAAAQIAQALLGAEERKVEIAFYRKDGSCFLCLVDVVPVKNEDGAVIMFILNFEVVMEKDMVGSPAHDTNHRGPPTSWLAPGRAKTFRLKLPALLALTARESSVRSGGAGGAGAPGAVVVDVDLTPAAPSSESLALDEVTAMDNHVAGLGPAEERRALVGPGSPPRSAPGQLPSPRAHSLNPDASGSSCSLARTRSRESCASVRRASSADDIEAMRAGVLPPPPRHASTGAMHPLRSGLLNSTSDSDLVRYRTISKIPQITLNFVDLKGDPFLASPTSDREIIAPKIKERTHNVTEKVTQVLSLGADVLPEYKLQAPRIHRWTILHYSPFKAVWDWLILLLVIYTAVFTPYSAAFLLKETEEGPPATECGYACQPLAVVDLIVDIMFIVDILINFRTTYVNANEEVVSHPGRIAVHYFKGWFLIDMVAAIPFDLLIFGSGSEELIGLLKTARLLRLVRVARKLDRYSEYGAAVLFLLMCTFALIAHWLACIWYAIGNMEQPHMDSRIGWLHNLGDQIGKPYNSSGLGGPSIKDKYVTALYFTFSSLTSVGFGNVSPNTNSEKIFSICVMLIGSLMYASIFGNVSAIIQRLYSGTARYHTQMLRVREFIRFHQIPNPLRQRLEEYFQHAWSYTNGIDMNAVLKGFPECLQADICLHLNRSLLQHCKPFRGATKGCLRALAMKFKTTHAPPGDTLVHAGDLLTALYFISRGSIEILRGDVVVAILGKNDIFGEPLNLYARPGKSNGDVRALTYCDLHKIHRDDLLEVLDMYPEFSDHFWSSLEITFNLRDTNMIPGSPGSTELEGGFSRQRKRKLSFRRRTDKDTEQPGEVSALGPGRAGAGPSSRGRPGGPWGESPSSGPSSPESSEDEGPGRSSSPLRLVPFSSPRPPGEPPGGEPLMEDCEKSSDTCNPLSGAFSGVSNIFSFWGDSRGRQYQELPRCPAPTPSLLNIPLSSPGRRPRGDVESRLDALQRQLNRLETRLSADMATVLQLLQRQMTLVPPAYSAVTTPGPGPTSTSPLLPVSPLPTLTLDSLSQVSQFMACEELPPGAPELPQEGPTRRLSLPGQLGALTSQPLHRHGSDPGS

This assay concerns the target human ether-à-go-go-related gene (hERG) potassium channel (human, UniProt Q12809). As to the kind of experiment: primary screen, population patch clamp on CHO cells stably expressing hERG.
For `COc1cc2c(cc1OC)CN(S(=O)(=O)/C=C/c1ccccc1)CC2`, the “hERG current change (%, negative = inhibition) at 1uM” value was 14.9%. As to `Fc1ccccc1CCNCc1cccc2ccccc12`, the “hERG current change (%, negative = inhibition) at 1uM” value was 14.1%. Take `COc1cccc(C(=O)NCCS(=O)(=O)NC2CCCC2)c1`: the “hERG current change (%, negative = inhibition) at 1uM” value stood at 11.1%. Take `CCOC(=O)c1c(C)n(C)c2ccc(O)c(CN3CCC(C)CC3)c12`: the “hERG current change (%, negative = inhibition) at 1uM” value is given as -4.03%.

Consider `CC(=C/c1ccco1)/C=N/NC(=O)c1nnn(-c2nonc2N)c1CN(C)C`, for which the “hERG current change (%, negative = inhibition) at 1uM” value is given as -16.9%. For `COc1ccc(NC(=O)CCCCCn2nnc3ccccc3c2=O)cc1OC`, the “hERG current change (%, negative = inhibition) at 1uM” value was 10.4%. The same measure for `Cn1c(CN2CCOCC2)nnc1SCC(=O)NC1CCCCC1`: 12.8%; for `COc1ccc(CC(=O)Nc2ccc(/C(C)=N/NC(=O)c3cccc([N+](=O)[O-])c3)cc2)cc1`: 14.2%; for `CC(NC(=S)Nc1ccc(OC(F)F)cc1OC(F)F)C(C)(C)C` (stereo not drawn): 2.91%. The figure for `CC(=O)N1CCN(c2ccc(NC(=O)c3cccc(Cl)c3Cl)cc2)CC1` is 3.68%; for `CCn1c(SCCC(C)C)nnc1-c1c[nH]c2ccccc12` it is 5.05%; for `CCN(CC)CCN(Cc1cc2cccc(C)c2[nH]c1=O)C(=S)Nc1ccccc1` it is -35%. The figure for `COC(=O)C1=C(c2ccc(F)cc2F)C[C@@H]2CC[C@H]1N2C(=O)NCc1ccc2c(c1)OCO2` is 6.83%; for `COc1ccc(-c2nc(C#N)c(NCc3ccc(F)cc3)o2)cc1OC` it is 6.12%. For the compound `O=C(Nc1nc2ccccc2s1)C1CC(=O)N(c2ccc(F)cc2)C1` (stereo not drawn), the “hERG current change (%, negative = inhibition) at 1uM” value is listed as 1.41%. The figure for `COC(=O)Nc1ccc(S(=O)(=O)N2CCC(C(=O)N3CCCCC3C)CC2)cc1` (stereo not drawn) is 8.69%. Turning to `O=C(O)C(=O)O.O=[N+]([O-])c1ccccc1S(=O)(=O)N1CCN(Cc2ccc3c(c2)OCO3)CC1`, the “hERG current change (%, negative = inhibition) at 1uM” value was 14.3%. The figure for `CCO[C@@H]1OC(C(=O)NCc2ccccc2)=C[C@H](c2ccc3c(c2)OCO3)[C@H]1CCCO` is 8.88%; for `CCOC(=O)N1CCN(C(=O)COc2cccc3c2CCN(CC)C3=O)CC1` it is 16.5%. In the case of `CCOC(=O)/C=C1\SCC(=O)N1CC(O)CN1C(=O)CS/C1=C\C(=O)OCC` (stereo not drawn), the “hERG current change (%, negative = inhibition) at 1uM” value is recorded as 3.11%. The figure for `COCCn1nnnc1C(c1cc2cccc(C)c2[nH]c1=O)N1CCN(c2ccccc2F)CC1` (stereo not drawn) is 8.7%. The figure for `NC(=O)CSc1nc(-c2ccccc2)nc2c1CCCC2` is 11.8%; for `CSc1nc(SCC(=O)NC(c2ccccc2)c2ccccc2)c2c3c(sc2n1)CN(C)CC3` it is 0.389%. The same measure for `O=C(CC1C(=O)NCCN1C(=O)c1ccccc1)Nc1cc(Cl)ccc1Cl` (stereo not drawn): 3.15%.

For `COc1ccc(N2CCN(S(=O)(=O)c3ccc4oc(=O)ccc4c3)CC2)cc1`, the “hERG current change (%, negative = inhibition) at 1uM” value was 5.44%.

For the compound `CC(=O)N/N=C(/c1ccccc1)C(O)c1ccccc1` (stereo not drawn), the “hERG current change (%, negative = inhibition) at 1uM” value is recorded as 9.66%. The same measure for `CCC(NC(=O)C1CCCO1)c1ccccc1` (stereo not drawn): 16.9%; for `Cc1cccc(N2CCN(c3ccc(N4C(=O)CCCC4=O)cc3[N+](=O)[O-])CC2C)c1` (stereo not drawn): 13.1%. For `NC(=O)C1CCCN(C(=O)c2ccc(Cl)cc2)C1` (stereo not drawn), the “hERG current change (%, negative = inhibition) at 1uM” value worked out at 0.138%. Consider `Cc1cc(NC(=O)c2cccc(S(=O)(=O)N3CC(c4ccccc4)CC3=O)c2)no1` (stereo not drawn), for which the “hERG current change (%, negative = inhibition) at 1uM” value was 1.27%.

In the case of `O=C(CSc1nncc2ccccc12)Nc1cccc(O)c1`, the “hERG current change (%, negative = inhibition) at 1uM” value was 10.9%. On to `COc1cc2c(cc1OC)CN(CC(=O)Nc1ccc(F)cc1F)CC2`, for which the “hERG current change (%, negative = inhibition) at 1uM” value is 5.13%. The figure for `O=C(CCCOc1ccccc1)NN1C(=O)NC2(CCCCC2)C1=O` is 25.2%; for `Cc1noc2c1C(c1ccc(N(C)C)cc1)C1=C(CC(C)(C)CC1=O)N2` (stereo not drawn) it is 7.27%; for `Cc1ccsc1C(=O)N/N=C/c1ccc2c(c1)OCO2` it is 12%. The same measure for `CC(=O)Nc1cccc(NC(=O)c2csc(C)c2)c1`: 10.5%. As to `Cc1ccc(-n2ncc3c(=O)[nH]c(SCC(=O)N4CCOCC4)nc32)cc1`, the “hERG current change (%, negative = inhibition) at 1uM” value came to 8.3%. `COCCSc1ccccc1C(=O)Nc1ccc(Br)cc1`: the “hERG current change (%, negative = inhibition) at 1uM” value was found to be 10.6%. The same measure for `N#Cc1ccc(S(=O)(=O)NC2CCCCNC2=O)cc1` (stereo not drawn): 6.61%; for `Cc1c(C#N)c(NC(=O)CCl)n(Cc2ccccc2)c1C`: 24.7%; for `Cc1ccc(CNS(=O)(=O)c2c(C(=O)N3CCCCC3)c(C)n(C)c2C)cc1`: 6.8%. The figure for `CCCCCC(=O)Nc1sc(C)c(C)c1C#N` is 1.66%; for `Cc1cc(NC(=O)CSc2ncnc3c2cnn3-c2cccc(Cl)c2)no1` it is 7.61%.

For the compound `CSc1ncccc1C(=O)NNc1cc(Cl)ccc1Cl`, the “hERG current change (%, negative = inhibition) at 1uM” value was 11.9%. The same measure for `C=CCNc1ncnc2c1[nH]c1ccc(Cl)cc12`: 0.0887%.

As to `Cc1ccc(/C=C2\SC(=S)N(/N=C/c3cc([N+](=O)[O-])ccc3O)C2=O)o1`, the “hERG current change (%, negative = inhibition) at 1uM” value turned out to be 8.62%. `COc1cc(NC(=O)C2CCCCC2)c(OC)cc1NC(=O)CN1CCCCC1`: the “hERG current change (%, negative = inhibition) at 1uM” value is reported as 5.77%. The figure for `Cc1cccc(N2C(=O)CSC23CCCCC3)c1` is 16.8%. On to `Cc1ccc2c(c1)NC(=O)C(CC(=O)NCCN(C)C)O2` (stereo not drawn), for which the “hERG current change (%, negative = inhibition) at 1uM” value came to 2.74%. As for `COc1ccc(C(=O)N/N=c2\oc3ccccc3cc2C(N)=O)cc1`, the “hERG current change (%, negative = inhibition) at 1uM” value came to 11.2%. As to `CC(C(=O)OCC(=O)Nc1cccc(S(=O)(=O)N2CCOCC2)c1)N1C(=O)c2ccccc2C1=O` (stereo not drawn), the “hERG current change (%, negative = inhibition) at 1uM” value was 18%. `Cc1ccc(C(=O)O)cc1NC(=S)NC(=O)C(c1ccccc1)c1ccccc1`: the “hERG current change (%, negative = inhibition) at 1uM” value came out at 5.46%.

With `COCCN1C(=O)CC(NNC(=O)c2ccc(S(=O)(=O)N3CCCC3)cc2)C1=O` (stereo not drawn), the “hERG current change (%, negative = inhibition) at 1uM” value was 5.4%. On to `CCOc1ccc(OCC)c(S(=O)(=O)NCc2ccccc2)c1`, for which the “hERG current change (%, negative = inhibition) at 1uM” value is 4.51%.

As for `Cc1cccc(NC(=O)CSc2ncnc3nc[nH]c23)c1`, the “hERG current change (%, negative = inhibition) at 1uM” value was found to be 8.72%.

For `CC(C)n1nc(C(=O)OCn2nnc3ccccc3c2=O)c2ccccc2c1=O`, the “hERG current change (%, negative = inhibition) at 1uM” value was determined as 12.1%. The same measure for `NC(=S)N/N=C/c1ccc(-c2ccc([N+](=O)[O-])cc2)o1`: 13.3%. The same measure for `O=C(COc1ccccc1)Nc1nn[nH]n1`: 2.85%. Consider `CC1CCN(S(=O)(=O)c2cnc[nH]2)CC1`, for which the “hERG current change (%, negative = inhibition) at 1uM” value was found to be 15%. The figure for `COc1ccc(C(=O)N=C2SC3CS(=O)(=O)CC3N2c2ccc(N(C)C)cc2)cc1OC` (stereo not drawn) is 9.99%; for `COc1ccc(CN2CCCCCC2)cc1OC` it is 2.9%.

In the case of `CSc1ccc(/C=C/C(=O)NC23CC4CC(CC(C4)C2)C3)cc1`, the “hERG current change (%, negative = inhibition) at 1uM” value was found to be 13.8%. For the compound `O=C(CCl)Nc1c(C(=O)Nc2ccc3c(c2)OCCO3)oc2ccccc12`, the “hERG current change (%, negative = inhibition) at 1uM” value turned out to be 11.7%. The figure for `Cc1cc(C)c(-c2c(O)c3c(n(C)c2=O)CC(C)(C)CC3=O)c(C)c1` is 4.76%.

In the case of `Clc1ccccc1-c1nnc2sc(-c3ccc(Br)o3)nn12`, the “hERG current change (%, negative = inhibition) at 1uM” value is given as 3.17%.

In the case of `CCc1cc(C=NC2CCCCC2)c(O)s1`, the “hERG current change (%, negative = inhibition) at 1uM” value is recorded as 11.4%. The same measure for `CCOc1ccccc1Nc1nnc(SCC(=O)Nc2ccc3[nH]c(=O)[nH]c3c2)s1`: -5.22%; for `COc1cc(C#Cc2c(-c3cncn3C)n(C)c3ccc(-c4cnc(OC)nc4)cc23)cc(OC)c1`: 15.1%; for `O=C(O)[C@@H](c1ccccc1)N1Cc2ccccc2C1=O`: 13.8%. The figure for `CCc1cccc(CC)c1NC(=S)N1CCn2cccc2C1c1cccnc1` (stereo not drawn) is 15.5%; for `CC1CCN(C(=O)C2CCN(S(=O)(=O)c3cccs3)CC2)CC1` it is 12.9%. For the compound `CC(=O)Nc1ccc(S(=O)(=O)Nc2cc(C)c(-n3nc4ccccc4n3)cc2O)cc1`, the “hERG current change (%, negative = inhibition) at 1uM” value is 1.25%. The figure for `CCC(=O)Nc1ccc(C(=O)CSc2nc3ccccc3cc2CC)cc1` is -1.39%; for `O=C(Nc1ccc(S(=O)(=O)N2CCCCC2)cc1)c1ccncc1` it is 2.75%; for `COc1ccc(C)cc1NC(=O)COC(=O)c1c(C)noc1C` it is -1.51%.

As for `N#Cc1cc(S(=O)(=O)c2ccc(Cl)cc2)c(N)[nH]c1=O`, the “hERG current change (%, negative = inhibition) at 1uM” value is recorded as 3.56%. The same measure for `COC(=O)[C@H](Cc1c[nH]c2ccccc12)NC(=O)Nc1ccccc1OC`: 9.9%.

`Cc1cc(C)cc(OCC(=O)N2N=C(c3cccnc3)CC2(O)C(F)(F)F)c1` (stereo not drawn): the “hERG current change (%, negative = inhibition) at 1uM” value was found to be 1.73%. The same measure for `COc1ccc(OC)c(-c2nc3ccccc3nc2-c2ccccc2)c1`: 10.2%; for `COc1ccc(N(C)C(=O)Cn2c(=O)oc3ccccc32)c(OC)c1`: 3.65%; for `Cc1[nH]n(-c2ncc(-c3ccc(Cl)cc3)s2)c(=O)c1C(c1ccc(Cl)cc1)C(C#N)C#N` (stereo not drawn): -2.41%.

For `NC(=O)C1=C[C@@H](c2ccc(C(F)(F)F)cc2)C[C@@H](OCc2ccc(CO)cc2)O1`, the “hERG current change (%, negative = inhibition) at 1uM” value is 3.1%.

`Cc1ccc(OCC(=O)NNC(=O)C(=O)NC(C)(C)C)cc1`: the “hERG current change (%, negative = inhibition) at 1uM” value stood at 4.19%. The same measure for `CCOC(=O)N1CCN(C(=O)CCS(=O)(=O)c2ccc3c(c2)CC(C)N3C(=O)CC)CC1` (stereo not drawn): 9.44%. In the case of `O=C(CN1CCc2ccccc2C1)Nc1cccc(S(=O)(=O)N2CCCC2)c1`, the “hERG current change (%, negative = inhibition) at 1uM” value amounted to 10.2%. Turning to `CN(C)c1ccc(C(CNC(=O)c2ccccc2)c2c[nH]c3ccccc23)cc1` (stereo not drawn), the “hERG current change (%, negative = inhibition) at 1uM” value was determined as 3.71%. On to `Cc1ccc(S(=O)(=O)Oc2ccc(/C=C(/NC(=O)c3ccccc3)C(=O)O)cc2)cc1`, for which the “hERG current change (%, negative = inhibition) at 1uM” value worked out at 15%.

Source of the values: paper PMC4336329 (PLoS ONE, 2015).
